Certain results were filed several times, with different values. This list holds those alone. An entry can have further records. The records of an entry are repeated measurements across runs, samples, wells, individuals or studies.
Tests used:
Assay type in all cases: toxicity, cell-based
[1] = system: U2OS; test: Multiplex assay against U2OS; conditions: human
In short: (§1)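 Cells were classed with CellPathfinder machine-learning gating, first as Hoechst high-intensity objects or normal cells, then (normal cells) as healthy, pyknosed or fragmented nuclei, and finally (pyknosed cells) as mitotic or apoptotic. Staining of live cells at seeding used Hoechst33342, BioTracker Green Microtubule Cytoskeleton Dye, MitoTracker Red and Annexin V Alexa Fluor 680, with imaging on a CQ1 microscope at 37°C and 5% CO2 after compound addition. Tubulin, mitochondrial-mass and membrane-permeability phenotypes are per cents of healthy-nucleus cells.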

[2] = system: HEK-293T; test: Multiplex assay against HEK293T; conditions: human; in short: as §1;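 for Population Tubulin-Different-Phenotype (%): share of the cells with healthy nuclei that show this phenotype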
[3] = system: Fibroblast; test: Multiplex assay against human fibroblast; in short: as §1
[4] = 12 h, 10 µM, compound concentration 10 uM, replicate 1
[5] = 12 h, 10 µM, compound concentration 10 uM, replicate 2
[6] = 24 h, 10 µM, compound concentration 10 uM, replicate 1
[7] = 24 h, 10 µM, compound concentration 10 uM, replicate 2
[8] = 12 h, 1 µM, compound concentration 1 uM, replicate 1
[9] = 12 h, 1 µM, compound concentration 1 uM, replicate 2
[10] = 24 h, 1 µM, compound concentration 1 uM, replicate 1
[11] = 24 h, 1 µM, compound concentration 1 uM, replicate 2

COc1ccccc1-c1cc(Nc2cccc(CS(N)(=O)=O)c2)ncn1
Population Hoechst High Intensity Objects (%) [1, 4]: 6% and 1% | Population Pyknosed Nuclei (%) [1, 5]: 14% and 3% | Population Fragmented Nuclei (%) [1, 6]: 10% and 3% | Population Pyknosed Nuclei (%) [1, 6]: 10% and 3% | Population Fragmented Nuclei (%) [1, 7]: 22% and 5% | Population Hoechst High Intensity Objects (%) [1, 7]: 21% and 6% | Population Membrane Permeable-Phenotype (%) [1, 7]: 20% and 6% | Population Pyknosed Nuclei (%) [1, 7]: 13% and 2% | Population Fragmented Nuclei (%) [2, 7]: 31% and 8% | Population Mitochondria Different-Phenotype (%) [2, 7]: 2% and 17% | Population Tubulin-Different-Phenotype (%) [3, 4]: 18% and 2% | Population Tubulin-Different-Phenotype (%) [3, 6]: 2% and 27%

Cc1c(Nc2ccc(S(=O)(=O)N3CCN(C)CC3)cc2F)nc2ccc(-c3cnn(C4CC4)c3)cn2c1=O
Population Membrane Permeable-Phenotype (%) [1, 4]: 27% and 7% | Population Mitochondria Different-Phenotype (%) [1, 4]: 7% and 22% | Population Apoptotic (%) [1, 5]: 20% and 64% | Total Cell Count [1, 5]: 129 and 36 | Total Cell Count [1, 7]: 152 and 43 | Population Mitochondria Different-Phenotype (%) [2, 4]: 49% and 10% | Population Mitochondria Different-Phenotype (%) [2, 5]: 53% and 12% | Population Pyknosed Nuclei (%) [2, 5]: 52% and 6% | Total Cell Count [2, 5]: 261 and 1362 | Population Fragmented Nuclei (%) [2, 6]: 44% and 12% | Population Hoechst High Intensity Objects (%) [2, 6]: 43% and 13% | Population Mitochondria Different-Phenotype (%) [2, 6]: 48% and 9% | Population Apoptotic (%) [2, 7]: 23% and 6% | Population Hoechst High Intensity Objects (%) [2, 7]: 24% and 7% | Population Membrane Permeable-Phenotype (%) [2, 7]: 4% and 22% | Population Mitochondria Different-Phenotype (%) [2, 7]: 45% and 2% | Population Pyknosed Nuclei (%) [2, 7]: 46% and 4% | Total Cell Count [2, 7]: 284 and 1886 | Population Mitochondria Different-Phenotype (%) [3, 5]: 1% and 23% | Population Pyknosed Nuclei (%) [3, 5]: 23% and 3% | Total Cell Count [3, 5]: 1176 and 36 | Population Mitochondria Different-Phenotype (%) [3, 6]: 1% and 4% | Population Pyknosed Nuclei (%) [3, 7]: 3% and 22% | Population Tubulin-Different-Phenotype (%) [3, 7]: 13% and 3% | Total Cell Count [3, 7]: 43 and 1103

CNC(=O)Nc1ccc2c(c1)CC[C@@]21OC(=O)N(CC(=O)N(Cc2ccc(F)cc2)[C@@H](C)C(F)(F)F)C1=O [A-485]
Population Membrane Permeable-Phenotype (%) [1, 8]: 66% and 14% | Population Membrane Permeable-Phenotype (%) [1, 9]: 64% and 20% | Population Tubulin-Different-Phenotype (%) [1, 9]: 37% and 9% | Population Apoptotic (%) [1, 10]: 6% and 33% | Population Pyknosed Nuclei (%) [1, 11]: 13% and 2% | Population Membrane Permeable-Phenotype (%) [2, 8]: 28% and 7% | Population Tubulin-Different-Phenotype (%) [2, 8]: 52% and 8% | Population Membrane Permeable-Phenotype (%) [2, 9]: 20% and 4% | Population Tubulin-Different-Phenotype (%) [2, 9]: 79% and 14% | Population Mitochondria Different-Phenotype (%) [2, 11]: 9% and 2% | Population Tubulin-Different-Phenotype (%) [2, 11]: 83% and 17% | Population Membrane Permeable-Phenotype (%) [3, 8]: 18% and 3% | Population Mitochondria Different-Phenotype (%) [3, 8]: 9% and 1% | Population Tubulin-Different-Phenotype (%) [3, 8]: 37% and 8% | Population Apoptotic (%) [3, 9]: 33% and 100% | Population Mitotic Cells (%) [3, 9]: 66% and 0% | Population Mitochondria Different-Phenotype (%) [3, 10]: 14% and 3% | Population Membrane Permeable-Phenotype (%) [3, 11]: 35% and 7%

From ChEMBL document CHEMBL4689842, “EUbOPEN Chemogenomics Library wave 1” (2021)
